Results on 19 variants are retold here after the RNAGym collection of RNA variant scans (doi:10.7554/elife.90254).

Read counts are not given, so values of variants with three or more changes are uncertain.

The chains are these.
B1: LINE1-full (parent)
chain: UACGUAGGUGGUUUUCCCCUGAUAGUGCUAAGGGGGCCUGGAAGUUUGGACUGGGCAGAGCUCAACACAGCGUGGCAAAGUGGCUGUGGCUAGACUGCCUCUCUGGAUUCCUCGUCACUCAGCAGGGCAUCUCUGAGAGAAAUGCC

The variants in the series derive from B1. Description: self-cleavage, relative activity (ratio to wild type); higher = more cleavage; in vitro, sequencing; the parent is a self-cleaving ribozyme.
Turning to UACGUAGGUGGGUUUCCCCUGAUAGUGCUAAGGGGGCCUGGAAGUUUGGACUGGGCAGAGCUCAACACAGCGUGGCAAAGUGGAUGUGGCUAGACUGCUUCUCUGGAUUCCUCGUCACUCAGCAGGGCAUCUCUGAGAGAAAUGCC [U12G C84A C99U], the self-cleavage amounted to 0.08.
The value for UACGUAGGUGGGUUUCCCCUGAUAGUGCUAAGGGGGCCUGGAAGUUUGGACUGGGCAGAGCUCAACACAGCGUGGCAAAUUGGCUGAGGCUAGACUGCCUCUCUGGAUUCCUCGUCACUCAGCAGGGCAUCUCUGAGAGAAAUGCC [U12G G80U U87A] was 0.
Take UACGUAGGUGGGUUCCCCCUGAAAGUGCUAAGGGGGCCUGAAAGUUUGGACUGGGCAGAGCUCAACACAGCGUGGCAAAGUGGCUGUGGCUAGACUGCCUCUCUGGAUUCCUCGUCACUCAGCAGGGCAUCUCUGAGAGAAAUGCC [U12G U15C U23A G41A]: the self-cleavage came out at 1.21.
Then UACGUAGGUGGGUUUCCCCUGAUAGUGCUAAGGGGGCCUGGAAGUUUGGACUGGGCAGAGCUCAACAUGGCGUGGCAAAGUGGCUGUGGCUAGACUGCCUCUCUGGAUUCCUCGUCACUCAGCAGGGCAUCUCUGAGAGAAAUGCC [U12G C68U A69G], with 0.09; and UACGUAGGUGGGUUUCCCCAGAUAGUGCUAAGGGGGCCUGGAAGUUUGGACUGGGCAGAGCUCAACACAGCGUGGCAAAGUGGCUGUCGCUAGACUGCCUCUCUGGAUUCCUCGUCACUCAGCAGGGCAUCUCUGAGAGAAAUGCC [U12G U20A G88C], with 0.17.
The value for UACGUAGGUGGGUUUCCCCUGAUAGUGCUAAGGGGGCCUGGAAGUUUGGACUGGGCAGAGCUCAACAUAGCGUGGCUAAGUGGCUGUGGCUAGACUGCCUCUCUGGAUUCCUCGUCACUCAGCAGGGCAUCUCUGAGAGAAAUGCC [U12G C68U A77U] was 0.12; that for UACGUAGGUGGGUUUCCCCUGAUAGUGCUAAGGGGGCCUGGAAGUUUGGACUGGGCAGAGCUCAACACAGCGUGGCAGAGUGGCUGUGGCUAGACUGCCUCUCUGGAUUCCUCGUCACUCAGCAGGGCAUCUCUGAGGGAAAUGCC [U12G A78G A138G] was 0.84; that for UACGUAGGUGGGUCUCCCCUGAUAGUGCUAAGGGGGCCUGGAAGUUUGGACUGGGCAGAGCUCAACACAGCGUGGCAAUGUGGCUGUGGCUAGACUGCCUCUCUGGAUUCCUCGUCACUCUGCAGGGCAUCUCUGAGAGAAAUGCC [U12G U14C A79U A121U] was 1.31.
Then UACGUAGGUGGGUUUCCCCUGAUAGUGCUAAGGGGGCCUGGAAGUUUGGACUGGGCAGAGCUCAACGCAGCGUGGCAAAGUGGCUAUGGCUAGACUGCCUCUCUGGAUUCCUCGACGCUCAGCAGGGCAUCUCUGAGAGAAAUGCC [U12G A67G G86A U115A A117G], with 0; and UACGUAGGUGGGUUUCCCCUGAUAGUGCUAAGGUGGCCUGGAAGUUUGGACUGGGCAGAGCUCAACACAGCGUGGCAAAGUGGCUGUGGCUAGACUGCCUCUCUGGAUUCCACGUCACUCAGCAGGGCAUCUCUGAGAGAAAUGCC [U12G G34U U112A], with 1.33; and UACGUAGGUGGGCUUCCCCUGAUAGUGCUAAGGGAGCCUGGAAGUUUGGACUGGGCAGAGCUCAUCACAGCGUGGCAAGGUGGCUGUGGCUAGACUGCCUCUCUGGAUUCCUCGUCACUCAGCAGGGCAUCUCUGAGAGAAGUGCC [U12G U13C G35A A65U A79G A142G], with 0.16.
As for UACGUAGGUGGGUUUCCCUUGAUAGUGCUAAGGGGGCCUGGAAGUUUGGACUGGGCAGAGCUCAACACAGCGUGGCAAGGUAGCUAUGGCUAGACUGCCUCUCUGGAUUCCUCGUCACUCAGCAGGGCAUCUCUGAGAGAAAUGCC [U12G C19U A79G G82A G86A], the self-cleavage came to 0.24.
The value for UACGUAGGUGGGUUUCCCCUGAUAGUGCUAAGGGGGCCUGGAAGUUUGGACUGGUCAGAGCUCGACACAGCGUGGCAAAGUGGCUGUGGCUAGACUGCCUCUCUGGAUUCCUCGUCACUCAGCAGGGCAUCUCUGAGAGAAAUGCC [U12G G55U A64G] was 0.1; that for UACGUAGGUGGGUUCCCCCUGAUAGUGCUAAGGGGGCCUGGAAGUUUGGACUGGGCAGAGCUCGACACAGCGUGGCAAAGUGGCUGUGGCUAGACUGCCUCUCUGGAUUCCUCGCCACUCAGCAGGGCAUCUCUGAGAGAAAUGCC [U12G U15C A64G U115C] was 0.28; that for UACGUAGGUGGGUUACCCCUGAUAGUGCUAAGGGGGCCUGGAAGUUUGGACUGGGCAGAGCUCAACACAGCGUGGCAGAGUGGCUGUGGCUAGACUGCCUCUCUGGAUUCCUCGUCACUCAGCGGGGCAUCUCUGAGAGAAAUGCC [U12G U15A A78G A124G] was 0.59.
Take UACGUAGGUGGGUUUCCCCUGAUAGUGCUAAGGGGGCCUGGAAGUUUGGACUGGGCUGAGCUCAACACAGCGUGGCAAAGUGGCUGUGGCUAGACUGCCUCUCUGGAUUCCUCGUCACUCAGCAGGGCAUCUCUGAGAGAGAUGCC [U12G A57U A141G]: the self-cleavage stood at 0.1.
The value for UACGUAGGUGGGUUUCCCCUGAUAGUGCUAAGGGGGCCUGGAAGUUUGGACUGGGCAGAGCUCAACACAGCGUGGCAAAGUGGCUGUGGCUAGACUGCCUCUCUGGAUUCCUCGUCACUCUGCAGGGCAUCUCAGAGAGAAAUGCC [U12G A121U U134A] was 1.72; that for UACGUAGGUGGGUUUCCCCUGAUAGUGCUAAGGGGGCCUGGAAGUUUGGACUAGGCAGAGCUCAACACAGCGUGGCAAAGUGGCCGUGGCUAGACUGCCUCCCUGGAUUCCUCGUCACUCAGCAGGGCAUCUCUGAGAGAAAUGCC [U12G G53A U85C U102C] was 0.19; that for UACGUAGGUGGGUUUCCCCUGAUAGUGCUAAGGGGGCCUGGAAGUUUGGACUGGGCAGAGCUCAACACAGCGUGGCAAUGUGGCUGUGGCUAGGCUGCCUCUCUGGAUUCCUCGUCACUCAGCAGGGCAUCUCUGAGAGAAAUGCC [U12G A79U A94G] was 0.
